Experimental data: US9873709B2 (priority 2013, dated 2018)

What follows are compounds tested against isolated recombinant JAK1 kinase domain (Homo sapiens (Human), UniProt P23458). Settings: read-out: JAK1 Ki.

Row | Compound | Ki [nM]
1 | CSc1ccc(C2(CO)CCN(c3cccn4nc(Nc5ccc(C(=O)N(C)C6CCN(C)CC6)cc5)nc34)CC2)cc1 [Example 1-251, 4-([8-[4-(hydroxymethyl)-4-[4-(methylsulfanyl)phenyl]piperidin-1-yl]-[1,2,4]triazolo[1,5-a]pyridin-2-yl]amino)-N-methyl-N-(1-methylpiperidin-4-yl)benzamide] | 0.61
2 | CN1CCC(N(C)C(=O)c2ccc(Nc3nc4c(N5CCC(CO)(c6ccc(C(F)F)cc6)CC5)cccn4n3)cc2)CC1 [Example 1-267, 4-[(8-[4-[4-(difluoromethyl)phenyl]-4-(hydroxymethyl)piperidin-1-yl]-[1,2,4]triazolo[1,5-a]pyridin-2-yl)amino]-N-methyl-N-(1-methylpiperidin-4-yl)benzamide] | 0.42
3 | CN1CCC(N(C)C(=O)c2ccc(Nc3nc4c(C5=CCC(CC#N)(c6ccc(Cl)cc6)CC5)cccn4n3)cc2)CC1 (stereo not shown) [Example 1-294, 4-([8-[4-(4-chlorophenyl)-4-(cyanomethyl)cyclohex-1-en-1-yl]-[1,2,4]triazolo[1,5-a]pyridin-2-yl]amino)-N-methyl-N-(1-methylpiperidin-4-yl)benzamide] | 0.68

Same assay, conditions: read-out: JAK1 Ki; isolated recombinant JAK1 kinase domain, 25 μM ATP

Row | Ki [nM] | Compound
4 | 3.55 | O=C(c1ccc(Nc2nc3c(N4CCC(O)(c5ccc(Cl)cc5)CC4)cccn3n2)cc1)N1CC2CNCC(C1)O2 [Example 1-239, [4-[[8-[4-(4-chlorophenyl)-4-hydroxy-1-piperidyl]-[1,2,4]triazolo[1,5-a]pyridin-2-yl]amino]phenyl]-(9-oxa-3,7-diazabicyclo[3.3.1]nonan-3-yl)methanone]
5 | 1.63 | O=C(c1ccc(Nc2nc3c(N4CCC(O)(c5ccc(Cl)cc5)CC4)cccn3n2)cc1)N1CC[C@H]2CNC[C@H]21 [Example 1-241, [(3aS,6aS)-3,3a,4,5,6,6a-hexahydro-2H-pyrrolo[2,3-c]pyrrol-1-yl]-[4-[[8-[4-(4-chlorophenyl)-4-hydroxy-1-piperidyl]-[1,2,4]triazolo[1,5-a]pyridin-2-yl]amino]phenyl] methanone]
6 | 2.51 | O=C(c1ccc(Nc2nc3c(N4CCC(O)(c5ccc(Cl)cc5)CC4)cccn3n2)cc1)N1CCO[C@@H]2CNC[C@H]21 [Example 1-242, [(4aR,7aR)-3,4a,5,6,7,7a-hexahydro-2H-pyrrolo[3,4-b][1,4]oxazin-4-yl]-[4-[[8-[4-(4-chlorophenyl)-4-hydroxy-1-piperidyl]-[1,2,4]triazolo[1,5-a]pyridin-2-yl]amino]phenyl] methanone]
7 | 2.52 | O=C(c1ccc(Nc2nc3c(N4CCC(O)(c5ccc(Cl)cc5)CC4)cccn3n2)cc1)N1CCO[C@@H]2CNC[C@@H]21 [Example 1-243, [(4aS,7aR)-3,4a,5,6,7,7a-hexahydro-2H-pyrrolo[3,4-b][1,4]oxazin-4-yl]-[4-[[8-[4-(4-chlorophenyl)-4-hydroxy-1-piperidyl]-[1,2,4]triazolo[1,5-a]pyridin-2-yl]amino]phenyl] methanone]
8 | 3.93 | CO/N=C/C1(c2ccc(Cl)cc2)CCN(c2cccn3nc(Nc4ccc(C(=O)N(C)C5CCN(C)CC5)cc4)nc23)CC1 [Example 1-250]
9 | 0.64 | CCOC(=O)CC1(c2ccc(Cl)cc2)CCN(c2cccn3nc(Nc4ccc(C(=O)N(C)C5CCN(C)CC5)cc4)nc23)CC1 [Example 1-254]
10 | 1.17 | CN1CCC(N(C)C(=O)c2ccc(Nc3nc4c(N5CCC(CC(F)F)(c6ccc(Cl)cc6)CC5)cccn4n3)cc2)CC1 [Example 1-256, 4-([8-[4-(4-chlorophenyl)-4-(2,2-difluoroethyl)piperidin-1-yl]-[1,2,4]triazolo[1,5-a]pyridin-2-yl]amino)-N-methyl-N-(1-methylpiperidin-4-yl)benzamide]
11 | 26.6 | CN1CCC(N(C)C(=O)c2ccc(Nc3nc4c(N5CCC(CC#N)(C6CCCC6)CC5)cccn4n3)cc2)CC1 [Example 1-257, 4-([8-[4-(cyanomethyl)-4-cyclopentylpiperidin-1-yl]-[1,2,4]triazolo[1,5-a]pyridin-2-yl]amino)-N-methyl-N-(1-methylpiperidin-4-yl)benzamide]
12 | 26.3 | CN1CCC(N(C)C(=O)c2ccc(Nc3nc4c(N5CCC(C)(C(=O)NCc6ccccc6)CC5)cccn4n3)cc2)CC1 [Example 1-259, N-benzyl-4-methyl-1-[2-[4-[methyl-(1-methyl-4-piperidyl)carbamoyl]anilino]-[1,2,4]triazolo[1,5-a]pyridin-8-yl]piperidine-4-carboxamide]
13 | 0.84 | CN1CCC(N(C)C(=O)c2ccc(Nc3nc4c(N5CCC(CN)(c6ccc(Cl)cc6)CC5)cccn4n3)cc2)CC1 [Example 1-265, 4-([8-[4-(aminomethyl)-4-(4-chlorophenyl)piperidin-1-yl]-[1,2,4]triazolo[1,5-a]-pyridin-2-yl]amino)-N-methyl-N-(1-methylpiperidin-4-yl)benzamide]
14 | 8.8 | CN1CCC(N(C)C(=O)c2ccc(Nc3nc4c(N5CCC(CO)(CNCC(F)(F)F)CC5)cccn4n3)cc2)CC1 [Example 1-266, 4-([8-[4-(hydroxymethyl)-4-[[(2,2,2-trifluoroethyl)amino]methyl]piperidin-1-yl]-[1,2,4]triazolo[1,5-a]pyridin-2-yl]amino)-N-methyl-N-(1-methylpiperidin-4-yl)benzamide]
15 | 0.71 | CC(=O)NCC1(c2ccc(Cl)cc2)CCN(c2cccn3nc(Nc4ccc(C(=O)N(C)C5CCN(C)CC5)cc4)nc23)CC1 [Example 1-268, 4-([8-[4-(4-chlorophenyl)-4-(acetamidomethyl)piperidin-1-yl]-[1,2,4]triazolo[1,5-a]pyridin-2-yl]amino)-N-methyl-N-(1-methylpiperidin-4-yl)benzamide]
16 | 28.5 | CN1CCC(N(C)C(=O)c2ccc(Nc3nc4c(N5CCC(C(=O)O)(c6ccc(Cl)cc6)CC5)cccn4n3)cc2)CC1 [Example 1-269, 4-(4-chlorophenyl)-1-[2-([4-[methyl(1-methylpiperidin-4-yl)carbamoyl]phenyl]amino)-[1,2,4]-triazolo[1,5-a]pyridin-8-yl]piperidine-4-carboxylic acid]
17 | 173 | CN1CCC(N(C)C(=O)c2ccc(Nc3nc4c(N5CC6CC5CN6Cc5ccccc5)cccn4n3)cc2)CC1 (stereo not shown) [Example 1-293, 4-[[8-(5-benzyl-2,5-diazabicyclo[2.2.1]heptan-2-yl)-[1,2,4]triazolo[1,5-a]pyridin-2-yl]amino]-N-methyl-N-(1-methyl-4-piperidyl)benzamide]

Continued, compound first:

Row | Compound | Ki [nM]
18 | O=C(N[C@H]1[C@@H]2CNC[C@@H]21)c1ccc(Nc2nc3c(N4CCC(O)(c5ccc(Cl)cc5)CC4)cccn3n2)cc1 [Example 1-238, N-[(1R,5S)-3-azabicyclo[3.1.0]hexan-6-yl]-4-[[8-[4-(4-chlorophenyl)-4-hydroxy-1-piperidyl]-[1,2,4]triazolo[1,5-a]pyridin-2-yl]amino]benzamide] | 1.73
19 | NCC12CC(CN1C(=O)c1ccc(Nc3nc4c(N5CCC(O)(c6ccc(Cl)cc6)CC5)cccn4n3)cc1)C2 [Example 1-240] | 3.72
20 | O=C(c1ccc(Nc2nc3c(N4CCC(O)(c5ccc(Cl)cc5)CC4)cccn3n2)cc1)N1CCOC2CCNCC21 (stereo not shown) [Example 1-244, 2,3,4a,5,6,7,8,8a-octahydropyrido[4,3-b][1,4]oxazin-4-yl[4-[[8-[4-(4-chlorophenyl)-4-hydroxy-1-piperidyl]-[1,2,4]triazolo[1,5-a]pyridin-2-yl]amino]phenyl] methanone] | 2.7
21 | O=C(NCC1CCC2(CCNCC2)CO1)c1ccc(Nc2nc3c(N4CCC(O)(c5ccc(Cl)cc5)CC4)cccn3n2)cc1 (stereo not shown) [Example 1-245, 4-[[8-[4-(4-chlorophenyl)-4-hydroxy-1-piperidyl]-[1,2,4]triazolo[1,5-a]pyridin-2-yl]amino]-N-(2-oxa-9-azaspiro[5.5]undecan-3-ylmethyl)benzamide] | 2.61
22 | CN1CCC(N(C)C(=O)c2ccc(Nc3nc4c(N5CCC(CCC#N)(c6ccc(Cl)cc6)CC5)cccn4n3)cc2)CC1 [Example 1-247, 4-{8-[4-(4-Chloro-phenyl)-4-(2-cyano-ethyl)-piperidin-1-yl]-1,8a-dihydro[1,2,4]triazolo[1,5-a]pyridine-2-ylamino}-N-methyl-N-(1-methyl-piperidin-4-yl)-benzamide] | 0.5
23 | CC(=O)NC1(C)CCN(c2cccn3nc(Nc4ccc(C(=O)N(C)C5CCN(C)CC5)cc4)nc23)CC1 [Example 1-260, 4-[[8-(4-acetamido-4-methylpiperidin-1-yl)-[1,2,4]-triazolo[1,5-a]pyridin-2-yl]amino]-N-methyl-N-(1-methylpiperidin-4-yl)benzamide] | 106
24 | CN1CCC(N(C)C(=O)c2ccc(Nc3nc4c(N5CCC(C)(N(C)S(=O)(=O)c6ccccc6)CC5)cccn4n3)cc2)CC1 [Example 1-261] | 41.5
25 | CN1CCC(N(C)C(=O)c2ccc(Nc3nc4c(Oc5ccc6oc(=O)n(Cc7ccccc7)c6c5)cccn4n3)cc2)CC1 [Example 1-264, 4-([8-[(3-benzyl-2-oxo-2,3-dihydro-1,3-benzoxazol-5-yl)oxy]-[1,2,4]triazolo[1,5-a]pyridin-2-yl]amino)-N-methyl-N-(1-methylpiperidin-4-yl)benzamide] | 134
26 | CN1CCCC12CN(C(=O)c1ccc(Nc3nc4c(N5CCC(CO)(c6ccc(Cl)cc6)CC5)cccn4n3)cc1)C2 [Example 1-274, [4-[[8-[4-(4-chlorophenyl)-4-(hydroxymethyl)-1-piperidyl]-[1,2,4]triazolo[1,5-a]pyridin-2-yl]amino]phenyl]-(5-methyl-2,5-diazaspiro[3.4]octan-2-yl)methanone] | 0.2
27 | COC(=O)CCN1CCN(C(=O)Cn2cc(Nc3nc4c(N5CCC(CO)(c6ccc(Cl)cc6)CC5)cccn4n3)cn2)CC1 [Example 1-290, Methyl 3-(4-[2-[4-([8-[4-(4-chlorophenyl)-4-(hydroxymethyl)piperidin-1-yl]-[1,2,4]triazolo[1,5-a]pyridin-2-yl]amino)-1H-pyrazol-1-yl]acetyl]piperazin-1-yl)propanoate] | 0.18
28 | O=C(NCCCN1CCOCC1)c1ccc(Nc2nc3c(C4C=CN(C(=O)CCC(F)(F)F)CC4)cccn3n2)cc1 (stereo not shown) [Example 1-295, N-(3-morpholinopropyl)-4-[[8-[1-(4,4,4-trifluorobutanoyl)-3,4-dihydro-2H-pyridin-4-yl]-[1,2,4]triazolo[1,5-a]pyridin-2-yl]amino]benzamide] | 7.38
